# Data as given in PubChem BioAssay (NCI).
# Some structures have more than one record in an assay (separate samples or runs), and their calls can disagree.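 Treatment: one concentration, 48 hours, 96-well format. Scoring: percent growth, with anything below 10 considered active.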 A number of entries come with more than one value. Only these are listed. There may be further records. This drug was run again and again over the years, at its own concentration, as given; one value stands for one run. Additions like (4×) count equal records among those shown.
# Test system: CAKI-1 renal
# Assay: NCI-60 one-dose screen, 48 h (100 = growth as untreated, 0 = no growth, -100 = all killed)
structure (smiles),measurement,setting,value
COc1cccc2c1C(=O)c1c(O)c3c(c(O)c1C2=O)C[C@@](O)(C(=O)CO)C[C@@H]3OC1CC(N)C(O)C(C)O1 (stereo not given in full),growth,"0.25 µM, runs of 2009","inactive: 58.4, 64, 57.9, 53.1, 73.1, 69.1, 83, 85.7, 76.8, 63.8, 56.6, 63.6, 56.2, 52.1, 63.4, 63.9, 66.8, 53.6, 65.1, 62.1 (2×), 65.7, 74.4, 69.7 (2×), 71.5, 78, 68.1, 61.3, 71.3 (2×), 65.4 (2×), 37.4, 36.4, 74.7 (2×), 64.2 (2×), 113, 77.6, 70.7 (2×), 78.7, 82.1, 84.1, 84.9 (2×), 88.1, 80.5, 78.8, 81.3 (2×), 90.3, 84.7, 74.9, 73.7, 48.4, 70.2, 64.5, 74.1, 58.2, 55.9, 75.2, 51, 93.4, 79.2, 66.7, 59.4, 79.5, 42, 76, 75.8, 74, 68.6%"
same,growth,"0.25 µM, runs of 2010","inactive: 64.1, 67.3, 53.5, 63, 49.2, 46.5, 59.9 (2×), 46.2, 55.8, 62, 49.3, 65.1, 69.5, 82.4 (3×), 70.6, 58.2, 62.5, 90.7, 53.1, 74.3 (2×), 39.6, 73.2, 73.7, 44, 57.3, 49.4, 64.4, 61.1, 64.9, 53.2, 29, 47.8, 22.7, 62.3, 82, 83.6, 75.1, 67.7, 85.1, 80.2, 86, 82.6, 70.2, 66.3, 60.6, 51.8, 51, 54.9, 52.1, 51.7, 52, 51.3%"
same,growth,"0.25 µM, runs of 2011","inactive: 60.4, 76.3, 80.2, 71.3, 75, 77.6 (2×), 87.6, 81.4 (2×), 72.3, 70.4 (2×), 80.9, 86.2, 82.4, 76.8, 79.2, 78.4, 80.1, 68.6, 72.2, 72.7 (2×), 78.5, 78.2, 74.9 (2×), 80.5, 70.3, 75.2, 88.8, 86.7, 78.8, 83, 81.8, 72.1, 77.4, 84.8, 74.7, 72.9, 82, 63.6, 57.5, 65.1 (2×), 61.2, 62.4, 74.3, 68, 66.7, 58.2, 75.5, 68.7, 61.3, 71.4, 69.5, 70.6, 69.2 (2×), 73.8, 79.7, 77.5, 73.2, 56.9%"
same,growth,"0.25 µM, runs of 2012","inactive: 70.2, 64.9 (2×), 66.8 (2×), 59.4, 77.5, 82.1, 71, 72.2, 69.7, 70 (2×), 64.4, 63.1, 61.3, 63.8 (2×), 63.3 (3×), 60.3 (2×), 67.2, 64.5, 64.1, 65.6, 61.9, 71.6, 75.9 (2×), 77.2, 81.5, 83.4, 81.6 (2×), 82.2, 85.4, 89.8, 87, 89.5, 82 (2×), 81.8, 87.4, 80.6, 62.5 (2×), 61.7, 76.3, 73.5, 72.4, 55.4, 63.7, 50.6, 54, 64.6, 59.2, 55.9 (2×), 50.8, 51.1, 63.2 (2×), 67.4, 43.3, 62, 51.8 (2×), 42.7, 61, 56.8, 41.6, 83.1, 62.9, 83.6%"
same,growth,"0.25 µM, runs of 2013","inactive: 54.6, 53.4, 58.4, 49.4, 62.8 (2×), 66.4, 67.8, 68.1 (2×), 63.4 (2×), 70.1, 69.9, 50.7, 65.6, 60.3 (2×), 69.4, 62.7, 72.1, 55.7, 68.7, 66.2, 62.3, 64.2, 63.8, 60.7, 55.9, 62.9 (2×), 74.1, 79.7, 72.5 (2×), 76.3, 69, 67.5, 66.9, 69.8, 82.2, 87.6, 70.7, 70.2, 69.5, 65.1, 70.5, 74.3, 69.2, 78.7, 73.5, 65.2, 56.7, 63.2, 66.3, 70.8, 71.1, 72.8, 58.3, 64.6, 58.9, 58.1, 67.7, 58, 56.5, 63.9, 69.6, 73.2, 75, 81.2, 79, 75.4, 78.6, 83.3%"
same,growth,"0.25 µM, runs of 2014","inactive: 80.8, 81.9, 79.8 (2×), 79.5, 76.4, 75.7 (2×), 71, 79.6, 84.1 (2×), 57.2, 56.1, 59.4, 61.8, 64.4 (2×), 71.6 (2×), 70.9, 68.6 (2×), 82.6, 71.8, 82.1 (2×), 91.3, 83.5, 83.4, 88, 87.7 (2×), 85.4 (2×), 92, 85.5, 86.4 (2×), 84.6, 89.4, 86.8, 84.8, 52.3, 51.4, 58.9, 56.6, 63.3, 61.2, 88.2, 88.5, 64.3, 64, 66.5, 66.3, 77.5, 80.2, 79.9, 74.7, 77.7, 90.1 (2×), 67.6, 70, 82.3, 74, 71.4, 72.4, 62.1, 65, 64.6 (2×), 69.9, 74.2, 76.3, 74.3, 80, 78.6, 76.2, 77, 80.4, 68.9, 73.9, 72.9, 81.5, 76.1%"
same,growth,"0.25 µM, runs of 2015","inactive: 84.3 (2×), 73.7, 72, 68.7 (2×), 62.6, 59.9, 69.3, 65.9, 69.8, 63, 79, 77, 78.9 (2×), 87.5, 81.6, 79.1 (4×), 75.8, 79.3, 83.7, 84.7, 89.6, 92.4, 94.4, 93.5 (2×), 80.7 (2×), 90.6, 90.9, 58.3, 59.8, 63.7, 70.2, 77.8, 78.7, 75.4, 89.7, 86.6, 67.3, 79.2, 66.5, 81, 85.7, 82.7 (2×), 72.1, 91.8, 81.4, 87.1, 87, 72.4, 71.8 (2×), 78.3, 58, 58.4, 62.8, 64.4, 63.9, 66.8, 74.6, 71.2, 70.9, 70.7, 68, 77.6, 73 (2×), 79.4, 78.6, 80.3, 74, 75.1 (2×), 72.6, 75, 80.2, 74.1, 80.1, 81.1, 78.2%"
same,growth,"0.25 µM, runs of 2016","inactive: 71.1, 68.5, 68.1 (2×), 69.9, 75.6, 79.8, 79.1, 76.3, 83.9, 85.9, 87.5, 76.7, 82.3, 77.2, 79.5, 72.8, 77.1, 71.6, 78.7, 67.7, 67.1, 69.2, 75.9, 73.8%"
same,growth,"0.25 µM, runs of 2017","inactive: 26.1 (2×), 26.9 (2×), 22.3, 24.4, 26.5, 26, 26.4, 29.8, 29.4, 29.9, 31.2, 29.3, 25.4, 28.7, 27.4, 29.2 (2×), 24.9, 25.9, 36.1, 36.7, 32.9, 33.2, 38.3, 39.2, 40, 41.4, 41, 44.4, 46.5, 57.4, 57.3, 62.1, 63.3, 69.9, 68.2, 78.4, 80.6, 31.6, 34.1, 33.5, 24.5, 25.3, 33.3, 30.9, 38.9, 39.6, 40.2, 37.9, 30.7, 37, 37.7, 60.6, 65.7, 66.6, 70.3%"
same,growth,"0.25 µM, runs of 2018","inactive: 66.5, 64, 61.1, 62.8, 62.6, 70.4, 70.3, 27.8, 29.2, 30.4, 48.7, 44.3, 47.3, 58.4, 56.1, 60.7, 55.2, 72.6, 57.3, 59.6, 68.5, 84.7, 29.9 (2×), 25.9, 33.3, 33.9, 26.1, 26.3, 25.1, 25.8 (2×), 47.5, 47.6, 26.5, 35.7, 69.6, 68.9, 27.5 (2×), 28.8, 23.1, 28.7, 32.6, 24.1, 30.5, 25.3, 24.2, 28, 18.9, 11.3, 21.9%"
same,growth,"0.25 µM, runs of 2019","inactive: 16.4, 16.7, 13.2, 26.8, 37.8, 36.4, 34.7, 20.2, 21 (2×), 23.9 (3×), 18.4, 26.6, 29, 65.1, 78.8, 69.5, 66.6, 19.4, 14.4, 15.8, 28.8, 12.4, 25.3, 25.5, 11.1, 11.3, 27.1, 25.2, 19.5, 11.6, 15.1, 14.2, 22, 28.9, 31.7, 32.2, 20.5, 19.9, 36.7, 30.5, 26.5%"
same,growth,"0.25 µM, runs of 2020","inactive: 15.4, 19.8, 19.6, 21.1, 25.3, 16.9, 29.5, 20, 24.9, 26, 23.1, 36.2, 25.2, 55.6, 36.1, 38.8, 22.7, 27.8, 24.6, 35, 39.4%"
same,growth,"0.25 µM, runs of 2021","inactive: 33.9, 38.5, 19.6, 29.3, 39.3, 28.7, 31.6, 27.3, 26.7, 27.9, 29.1, 31.9 (2×), 27.8, 31.2, 21.4, 19.4, 27.1, 20.8 (2×), 22.3, 22.8, 20.6, 20.4, 22.7 (2×), 26.5, 25.3, 26.8, 35.5, 19.1, 17.4, 19.2, 19, 21.9, 24.5, 25.4, 24.2 (2×), 19.8 (2×), 25.9, 11.8, 18.8, 15.3, 14.1, 21.2, 26.3%"
same,growth,"0.25 µM, runs of 2022","active: 6.42%, 6.45% and inactive: 26.5, 25.9, 13.7, 46.2, 52.8, 54.2, 60.3, 59.8 (2×), 72.6, 66.1, 18.3, 14.7, 41.2, 44.9, 24.2, 48, 40.8, 60, 37.4, 56.8, 63.8, 65.6%"
same,growth,"25 µM, runs of 1991","active: -14, -4.81, -3.49, -12, -25.6, -26.7, -9.38, -52.9, -28 (2×), -10.4, 1.21, -8.57, -6.04, -17%"
